Laboratory results: the RNAGym collection of RNA variant scans (doi:10.1073/pnas.2313332121)
Variants at the background level are over-represented here.

B1: TPR 5TU (parent)
chain: GGAUCUUCUCGAUCUAACAAAAAAGACAAAUCUGCCACAAAGCUUGAGAGCAUCUUCGGAUGCAGAGGCGGCAGCCUUCGGUGGCGCGAUAGCGCCAACGUUCUCAACUAUGACACGCAAAACGCGUGCUCCGUUGAAUGGAGUUUAUCAUG

Variants of: B1
Assay: polymerase ribozyme fitness, log enrichment relative to wild type (log ratio); higher = more active; in vitro selection for triplet polymerase activity
Summary of the method: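 The heterodimeric triplet polymerase ribozyme's subunits were each mutagenized into PCR-built libraries and transcribed. Every library was selected once, in triplicate, by annealing with a biotinylated primer, the partner subunit and triplets, incubating frozen at −7 °C, gel-excising extended constructs, capturing on streptavidin beads and running RT-PCR. Input and output libraries were Illumina-sequenced, with genotypes kept only at ≥10 input reads and ≥1 read per output. Fitness, from inverse-variance-weighted replicate averages, is the base-2 logarithm of genotype enrichment over wild-type enrichment.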

Variant | polymerase ribozyme fitness (log ratio)
GGAUCUUCUCGAUCUAACAAAAAAGACAAAUCUGCCAGAAAGCUUGAGAGCAUCUUCCGAUGCAGAGGCGGCAGCCUUCGGUGACGCGAUAGCGCCAACGUUCUCAACUAUGACACGCUAAACGCGUGCUCCGUUGAAUGGAGUUUAUCAUG [C38G G58C G84A A119U] | -0.795
GGAUCUUCUCGAUCUAACAAAAAAGACAAAUCUGCCAGAAAGCUUGAGAGCAUCUUCGGAUGCAGAGGCGGCAGCCUUCGGUGGCGCGAUAGCGCCAACGUUCUCAACUAUGACACGCAAAACGCGUGCUCCGUUGAAUCGAGUUUAUCAUG [C38G G140C] | -4.11
GGAUCUUCUCGAUCUAACAAAAAAGACAAAUCUGCCAUAAAGCUUGAGAGCAUCUUCGGAUGCAGAGGCGGCGGCCUUCGGUUGCGCGAUUGCGCCUACGUUCUCAACUGUGACACGCAAAACGCGUGCUCCGUUGAAUGGAGUUUAUCAUG [C38U A73G G83U A91U A97U A110G] | ≤ -4.2
GGAUCUUCUCGAUCUAACAAAAAAGACAAAUCUGCCAGAAAGCGUGAGAGCAUCUACGGAUGCAGAGGUGGCAGCCUUCGGUGGCGCGAUAGGGCCAACGUUCUCAACUAUGACACGCAAAACGCGUGCUCCGUUGAAUGGAGGUUAUCAUG [C38G U44G U56A C69U C93G U144G] | ≤ -4.2
GGAUCUUCUCGAUCUAACAAAAAAGACAAAUCUGCCAUACAGCUUGAGAGCAUCUUCGGAUGCAGAGGCGGCAGCCUUCUGUGGCGCGAUAGCGUCAACGUUCUCAACUAUGACACGCAAAACGCGUGCUCCGUUGAAUGGAGUUUAUCAUG [C38U A40C G80U C95U] | -1.06
GGAUCUUCUCGAUCUAACAAAAAAGACAAAUCUGCCAGAAAGCUUGAGAGCAUCUUCGGAUGCAGAGGCGGCAGCCUUCGGUGGCGCGAUAACGCCAACGUUCUCAACUAUGACACGCAAAACGCGUGCUCCGUUGAAUGGAGUUUAUAAUG [C38G G92A C149A] | ≤ -4.2
GGAUCUUCUCGAUCUAACAAAAAAGACAAAUCUGCCAUAAAGCUUGAGAGCAUCUUCGGCUGCAGAGGCGGCAGCCUUCGGUGGCGCGAUAGCCCCAACGUUCUCAACUGUGAUACGCAAAACGAGUGCUCCGUUGAAUGGAGUUUAUCAUG [C38U A60C G94C A110G C114U C125A] | ≤ -4.2
GGAUCUUCUCGAUCUAACAAAAAAGACAAAUCUGCCAGAAAGCUUGAGAGCAUCUUCGGAUGCAGAGGCGGCAGCCUUCGGUGGCGCGAUAACGCCAACGUUCUGAACUAUGACACGCAAAACGCGUGCUCCGUUGAAUGGAGUUUAUCAUG [C38G G92A C105G] | ≤ -4.2
GGAUCUUCUCGAUCUAACAAAAAAGACAAAUCUGCCAUCAAGCUUGAGAGCAUCUUCGGUUGCAGAGGCGGCAGCCUUCGGUGGCGCGAUAGCGCCAACGUUCUCAACUAUGACACGCAAAACGCGUGCUCCGUUGAAUGGAGUUUAUCAUG [C38U A39C A60U] | -3.28
GGAUCUUCUCGAUCUAACAAAAAAGACAAAUCUGCCAUAAAGCUUGAGAGCAUCUUCGGAUGCAGAGGUGGCAGCUUUCGGUGGCGCGAUAGCGCCAACGUUCUCAACUAUGACACGCAAAACGCGUGCUCCGUUGAAUGAGGUUUAUCAUG [C38U C69U C76U G141A A142G] | ≤ -4.2
GGAUCUUCUCGAUCUAACAAAAAAGACAAAUCUGCCAUAAAGCUUGAGAGCGUCUUUGGAUGCAGAUGCGGCAGCCUUCGGUGGCGCGUUAACGCCAACGUUCUCAACUAUGACACGCAAAACGCGUGCUCCGUUGAAUGGAGUUUAUCAUG [C38U A52G C57U G67U A89U G92A] | ≤ -4.2
GGAUCUUCUCGAUCUAACAAAAAAGACAAAUCUGCCAUAAAGCUUGAGAGCGUCUUCGGAUGCAGAGGCGGCUGCCUUCGGUGGCGCGAUAGCGCCAACGUUCUCAACUAUGACACGCAAAACGCGUGCUCCGUUGAAUGGAGUUUAUCAUU [C38U A52G A73U G152U] | -4.12
GGAUCUUCUCGAUCUAACAAAAAAGACAAAUCUGCCAUAAAGCUUGAGAGCAUCUUCGGAUGCAGAGGCGGCAGCCUUCGGUGGCGCGAUAGCGCCAACGUUCUCAACUAUGACACGCAACACGCGUGCUCCGUUCAUUGGAGUUUAGCAUG [C38U A121C G136C A138U U148G] | ≤ -4.2
GGAUCUUCUCGAUCUAACAAAAAAGACAAAUCUGCCAUAAAGUUUGAGAGCAUCUUCGGAUGCAGAGGCGGCAGCCUUCGGUGGCGCGAUAGCGCCAACGUUCUCAACUAUGACACGCAAAACGCGUGCUCCGUUGAAUGGAGUUUAUCAUG [C38U C43U] | ≤ -4.2
GGAUCUUCUCGAUCUAACAAAAAAGACAAAUCUGCCAUAAAGCUUGAGAGCAUCUUCGGAUGCAGAGGCGGCAGCCUUUGGUUGCGCGUUAGCGCCAACGUUCUCAACUAUGACACGCAAAACGCGUGCUCCAUUGAAUGGAGUUUAGCAUG [C38U C79U G83U A89U G133A U148G] | ≤ -4.2
GGAUCUUCUCGAUCUAACAAAAAAGACAAAUCUGCCAUAAAGCUUGAGAGCAUCUUCGGAUGCAGAGGUGGCAGCCUUCGGUGGCGCGAUUGCGCCAACGUUCUCAACUAUGACACGCAAAACGUGUGCUCCGUUGAAUGAAGUUUAUCAUG [C38U C69U A91U C125U G141A] | ≤ -4.2
GGAUCUUCUCGAUCUAACAAAAAAGACAAAUCUGCCAUAAAGCUUGCGCGCAUCUUCGGAUGCAGAGGCGGCAGCCUUCGGUGGCGCGAUCGCGCCAACGUUCUCAACUAUGACACGCAAAACGCGUGCUCCGUUGAAAGGAGUUUAUCAUG [C38U A47C A49C A91C U139A] | ≤ -4.2
GGAUCUUCUCGAUCUAACAAAAAAGACAAAUCUGCCAUAAAGCUUGAGAGCCUCUUCGGGUGCAGAGGCGGCAGCCUUCGGUGGCGCGAUAGCGCCAACGUUCUCAACUAUGACACGCGAAACGCGUGCUCCGUUGAAUGGAGUUUAUCAUG [C38U A52C A60G A119G] | 0.129
GGAUCUUCUCGAUCUAACAAAAAAGACAAAUCUGCCAGAAAGCUUGAGAGCAUGUUCGGAUGCAGAGGCGGCAGCCUUCGGCGGCGCGAUAGCGCCAACGUUCUCAACUAUGACACGCAAAACGCGUGCUCCGUUGAAUGGAGUUAAUCAUG [C38G C54G U82C U146A] | -1.88
